The source of these data is PubChem BioAssay AID206 (DTP/NCI, 2004).

Each structure is given as a SMILES string. Results filed as inconclusive are left out. The source holds more than one record for some entries. They are shown here; other results are not. The source may hold further records. The values listed for one entry are repeats across runs, samples, wells, individuals or studies. Brackets with × say how often a value occurs here.

For this test, the system named is nude mice, HT29 intrarenal xenograft, tumor weight T/C. The experiment in a line: NCI In Vivo Anticancer Drug Screen. Data for tumor model HT29;CX-1 Human Adenocarcinoma (MER+) (intrarenal inoculation) in NU/NU Swiss (nude) mice. The conditions noted are these: endpoint: mean tumor weight change, higher = larger tumour. In short, it runs like this:
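Mice with transplanted tumors are dosed with compound while controls get vehicle only. Survival or tumor burden is then assessed per group, and the treated value is expressed relative to control.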

`CSC1SCC2C(=O)N(C)C(C(C)C)C(=O)OCC(NC(=O)c3cnc4ccccc4n3)C(=O)NC(C)C(=O)N(C)C1C(=O)N(C)C(C(C)C)C(=O)OCC(NC(=O)c1cnc3ccccc3n1)C(=O)NC(C)C(=O)N2C` (stereo not drawn): the T/C reads like this: (dose: 60.0 micrograms/kg/injection, schedule: Q01DX010 (sc), vehicle: suspension in saline) 52 % of control and 101 % of control; (dose: 120.0 micrograms/kg/injection, schedule: Q01DX010 (sc), vehicle: suspension in saline) 54 % of control and 112 % of control; (dose: 240.0 micrograms/kg/injection, schedule: Q01DX010 (sc), vehicle: suspension in saline) 39 % of control and 67 % of control.
On to `O=P1(N(CCCl)CCCl)NCCCO1` (stereo not drawn), for which the T/C by setting is: (dose: 12.5 mg/kg/injection, schedule: Q01DX010 (sc), vehicle: saline) 83 % of control and 265 % of control; (dose: 25.0 mg/kg/injection, schedule: Q01DX010 (sc), vehicle: saline) 53 % of control, 111 % of control, 113 % of control.
For `C1CC[N-]CC1.[Cl][Pt+2][Cl].[NH-]C1CC1`, the T/C (dose: 12.5 mg/kg/injection, schedule: Q04DX004 (sc), vehicle: water) is 80 % of control and 153 % of control; the T/C (dose: 25.0 mg/kg/injection, schedule: Q04DX004 (sc), vehicle: water) was 42 % of control and 84 % of control.
Turning to `Nc1ncn(C2OC(CO)C(O)C2O)c(=O)n1` (stereo not drawn), the T/C (dose: 400.0 mg/kg/injection, schedule: Q04DX004 (sc), vehicle: suspension in saline) was 49 % of control and 76 % of control.
Regarding `CSc1ncnc2c1ncn2C1OC(CO)C(O)C1O` (stereo not drawn), the T/C (dose: 75.0 mg/kg/injection, schedule: Q04DX004 (sc), vehicle: saline + alcohol) is on record as 12 % of control, 28 % of control, 38 % of control.
For `CN(C)/N=N/c1nc[nH]c1C(N)=O`, for the setting “dose: 200.0 mg/kg/injection, schedule: Q01DX010 (sc), vehicle: Klucel (hydroxypropylcellulose) (HPC)”, the T/C was 47 % of control and 100 % of control.
On to `CCNC(=O)OCc1c(COC(=O)NCC)c(-c2ccc(Cl)c(Cl)c2)n2c1CCC2`, for which the T/C (dose: 37.5 mg/kg/injection, schedule: Q04DX004 (sc), vehicle: saline with Tween-80) was 80 % of control (2×) and 118 % of control.
For the molecule `COc1cc(NCc2ccc3nc(N)nc(N)c3c2C)cc(OC)c1OC`, the T/C by setting is: (dose: 1.25 mg/kg/injection, schedule: Q01DX010 (sc), vehicle: sodium bicarbonate) 35 % of control, 122 % of control, 157 % of control; (dose: 2.5 mg/kg/injection, schedule: Q01DX010 (sc), vehicle: sodium bicarbonate) 72 % of control, 85 % of control, 160 % of control; (dose: 5.0 mg/kg/injection, schedule: Q01DX010 (sc), vehicle: sodium bicarbonate) 74 % of control, 80 % of control, 177 % of control.
Regarding `COc1ccc(S(=O)(=O)N/N=C/C(=O)O)cc1`, the T/C reads like this: (dose: 200.0 mg/kg/injection, schedule: Q04DX004 (sc), vehicle: saline with Tween-80) 64 % of control, 88 % of control, 103 % of control; (dose: 400.0 mg/kg/injection, schedule: Q04DX004 (sc), vehicle: saline with Tween-80) 22 % of control and 63 % of control.
As to `[N-]=[N+]=CC(=O)CCC(=O)C=[N+]=[N-]`, the T/C by setting is: (dose: 9.0 mg/kg/injection, schedule: Q04DX004 (sc), vehicle: DMSO) 109 % of control and 164 % of control; (dose: 18.0 mg/kg/injection, schedule: Q04DX004 (sc), vehicle: DMSO) 79 % of control and 116 % of control.
